Assay results taken from the RNAGym collection of RNA variant scans (doi:10.1093/nar/gkz1192).
The source gives no read counts; variants with many changes may rest on few reads.

B1: CPEB3 Ribozyme (parent)
chain: UAACAGGGGGCCACAGCAGAAGCGUUCACGUCGCAGCCCCUGUCAGAUUCUGGUGAAUCUGCGAAUUCUGCUGUAUAUCUC

Variants of: B1
Test: self-cleavage, relative activity (ratio to wild type); higher = more cleavage; in vitro, sequencing
In short: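 Relative activity was defined as the cleaved/total read fraction for a variant divided by the same fraction for the unmutated ribozyme. CPEB3 self-cleaving ribozyme libraries were made by rounds of error-prone PCR, barcoded, and transcribed in vitro with T7 RNA polymerase for 5 hours at 37°C, and cleavage ran through transcription plus a 15 min DNase I step before EDTA. Illumina sequencing of template-switched reverse transcripts gave the reads, and DNA sequencing mapped the barcodes. Averages come from three batches, using variants with at least 5 reads.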

Variant	self-cleavage
G8C A15G A35G U72A	0.09
G8U C17U A47G U60G G63U U80A	0.02
G9A A28U U67C U80C	0.07
G8U C62U G73U	0.05
G8U A21G U43G A45U U76A U78C	0.05
G8U A13G C44A	0.19
G8A U41A A77U	0.06
G9A A20G G36A U48C	0.21
G8C G10A A47U U54C A75G	0.04
G8U U25C C38A A75G U76C	0.04
G8C U25C U54A	0.34
G8A U31C U43A U78A	0.17
G9A A35U U69C	0.05
G9A A28G A56U U72C U78C	0.04
G8U A18U U48C	0.06
G8U A45G U51A A64G	0.2
G8C U43C G52A U54C U72C A75U	0.1
G8U A15G U41C U43C C62G U67A U80C	0.07
G8A U41C U66C	0.18
G8U A45U G53U U74A	0.23
G9A A13G G22A	0.3

Variant	self-cleavage
G8U G9U C40G U49C A64U	0.04
G8U U25C A47G U60A A65G	0.09
G8U C12U U49C U67C C79G	0.09
G8C A20G C50U U66C	0.5
G8U A20G A57G	0.09
G9A A47G A57G C59A G70A	0.04
G8C A28G G30A U31A	0.06
G8U G52U A56U	0.15
G9A A15U A35U U41A U67A	0.04
G9A A20G U76C	0.41
G8U A20G U48G U51C U54C G70A	0.05
G8U C39U U48A C62G U67A	0.09
G9A A18U A20G U51A A56U	0.06
G8U A21U U25C A35G U41A A64G	0.04
G9A A20U U78C	0.22
G9A A13U A20U U31A U54C A56G U72G	0.02
G8C C12G C39G U69A	0.21
G8U U41C U43C U54A	0.24
G8U G9U C14U U26C C38U A45G	0.06
G8A U26C U67C U76C	0.05
G9A A21G G30U G42A U69C U80C	0.13

Variant	self-cleavage
G8A U41C U54A U76A	0.4
G8A U43A U78C	0.31
G9A A13U G33A U41A A57U	0.09
G9A A15G A45G U48C G63C U72A	0.04
G9A A47U A56G A57U	0.15
G9A A18U A21U A64U U66C U78C	0.11
G8A U26C U58C U67C U69A U80C	0.04
G8U A47U U54C C71U	0.06
G8A U49C U80C	0.09
G9A A20G U26C U49A	0.06
G8U U25A A28U U41C A64G	0.05
G8A U80A C81U	0.29
G9A A18U U43C	0.07
G9A A13G U48C U67A U80C	0.14
G9A A45G U60A U72A	0.12
G9A A15G G33A A45C	0.09
G9A A28G G53U	0.06
G8A U49C C59A U74C	0.05
G8A U31C A64U U67G U80C	0.05
G8U G33A U69C	0.1
G8U U67C U74C	0.1

Variant	self-cleavage
G8C C23A U26C	0.09
G8U A20U C32U G33C U54C U74C	0.1
G8A U31C U74C U78A	0.39
G8U G33A U51A A77G	0.04
G9A A15U A57U G63U U78A	0.04
G8C A56U U67C	0.07
G8A U41C A57G C79U	0.34
G8U U25C U26C A45U U60A A75U	0.05
G8A U41C A57G U67C	0.12
G8U U43A A64G U72C	0.04
G8U A35U G46A U66C	0.1
G8U U26C A64C	0.15
G9A A18U U26C U31C A47G	0.04
G9A A45G U49A G52C	0.08
G8A U41C C81U	0.54
G8U U25C C32U U41C A45G U60A U78C	0.04
G8U A28C A35G A77U	0.05
G8U C62G U76C	0.09
G8A U43C C50A U69C	0.06
G9A A28U U41C	0.18
